Results from the supplement of paper PMC9446081.
Hit rate of the full screen: of about 39,000 compounds, about 220 (0.56%) showed activity. This is one part of the list.

system: Escherichia coli K-12 BW25113; test: relative growth (OD600 normalised to plate interquartile mean) (fraction); higher = less growth inhibition, active = 0.2 or less; details: 50 µM; LB; incubation time: overnight (16-24 h)
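Note: static incubation at 37 °C against the wild-type strain, values averaged over two biological replicates.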

Structure (SMILES) | relative growth
Cn1c(=O)[nH]c2nc[nH]c2c1=O | inactive: 1.02
C[C@@H]1CCCCO[C@@H](CN(C)C(=O)NC2CCCCC2)[C@@H](C)CN([C@H](C)CO)C(=O)c2cc(NC(=O)Nc3cccc4ccccc34)ccc2O1 | inactive: 1.05
Cc1noc(C)c1S(=O)(=O)N(C)C[C@@H]1Oc2ccc(N(C)C)cc2CC(=O)N([C@@H](C)CO)C[C@@H]1C | inactive: 1.04
C[C@H](CO)N1C[C@H](C)[C@@H](CN(C)C(=O)Cc2ccccn2)Oc2cc(C#Cc3ccccc3)ccc2S1(=O)=O | inactive: 1
C[C@@H]1CN([C@H](C)CO)C(=O)c2cc(NC(=O)Nc3ccc(C(F)(F)F)cc3)ccc2O[C@H]1CN(C)Cc1ccc2c(c1)OCO2 | inactive: 0.763
C[C@H]1CN([C@@H](C)CO)C(=O)Cc2cc(NC(=O)Cn3cnnn3)ccc2O[C@H]1CN(C)CC1CC1 | inactive: 0.983
C[C@H]1CN([C@@H](C)CO)S(=O)(=O)c2ccc(C#Cc3ccccc3)cc2O[C@H]1CN(C)S(C)(=O)=O | inactive: 1.02
CCS(=O)(=O)NCC[C@@H]1CC[C@@H](NS(=O)(=O)c2cccc(F)c2)[C@H](CO)O1 | inactive: 0.959
COc1ccc(S(=O)(=O)N(C)C[C@H]2Oc3ccc(N(C)C)cc3C(=O)N([C@H](C)CO)C[C@H]2C)cc1 | inactive: 1.01
CC(C)NC(=O)N(C)C[C@H]1OCCCC[C@@H](C)Oc2ccc(NC(=O)C3CCCCC3)cc2C(=O)N([C@H](C)CO)C[C@@H]1C | inactive: 1.01
O=C(c1cccnc1)N1CCOCC1 | inactive: 0.917
OCC(S)CS (centres undefined) | inactive: 1.08
CN(C)CC(=O)N1[C@@H](CO)[C@H](c2ccc(C3=CCCC3)cc2)C12CN(S(=O)(=O)Cc1ccccc1)C2 | inactive: 0.975
COC(=O)[C@H](Cc1ccccc1)N1CC(/C=C/C2CC2)=C[C@@H]1[C@@H](O)CCn1cc(-c2ccc(C(=O)NO)s2)nn1 | inactive: 0.999
COCC(=O)Nc1ccc2c(c1)[C@H]1C[C@@H](CC(=O)N3CCOCC3)O[C@@H](CO)[C@H]1O2 | inactive: 0.992
COc1ccc(S(=O)(=O)N(C)C[C@H]2Oc3ccc(NS(=O)(=O)c4cccs4)cc3CC(=O)N([C@@H](C)CO)C[C@H]2C)cc1 | inactive: 1.01
C[C@@H]1CN([C@H](C)CO)C(=O)Cc2cc(NC(=O)Cc3ccccc3)ccc2O[C@@H]1CN(C)S(=O)(=O)c1cccs1 | inactive: 1.01
CC(C)=CC1C(C(=O)O)C1(C)C (centres undefined) | inactive: 0.91
C[C@H]1CN([C@@H](C)CO)C(=O)c2cc(NC(=O)c3ccncc3)ccc2O[C@@H]1CN(C)S(=O)(=O)c1cccs1 | inactive: 1.01
